Measurements: the BET-seq Pho4 binding data (Le et al. 2018)
The list shows a part of the results. These are noisy estimates, calculated here from bound and input reads.

target: T1, Pho4 (S. cerevisiae) (UniProt P07270); assay: relative binding free energy (BET-seq); higher = weaker binding; settings: reference: library average
T1 sequence: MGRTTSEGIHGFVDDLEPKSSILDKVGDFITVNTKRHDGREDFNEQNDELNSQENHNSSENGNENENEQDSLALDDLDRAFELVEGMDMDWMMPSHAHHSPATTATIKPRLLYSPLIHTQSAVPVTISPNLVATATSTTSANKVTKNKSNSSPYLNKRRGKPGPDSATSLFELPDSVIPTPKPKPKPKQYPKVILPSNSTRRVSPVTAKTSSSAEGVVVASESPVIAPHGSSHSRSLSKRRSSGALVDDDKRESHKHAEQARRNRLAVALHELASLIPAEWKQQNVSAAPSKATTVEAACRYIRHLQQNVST

Sequence	relative binding free energy [kcal/mol]
GACTTCACGTGAGGGG	0.34
GTAATCACGTGTAGGT	0.21
TTATACACGTGTCGGG	0.14
TTTAACACGTGTGTTC	0.09
TGCGGCACGTGGGATG	-0.27
TTTGACACGTGGGTGA	-0.13
GTTAGCACGTGCGTGT	-0.09
GGTGCCACGTGAATAG	0.2
CCGTGCACGTGGCGGG	-0.19
GGCCACACGTGGGGGG	-0.05
TAGTGCACGTGATGAA	0.03
AGCGTCACGTGGGTTT	-0.11
TTACGCACGTGAGAGG	0.22
GACGTCACGTGAGTTT	0.44
AGTGGCACGTGCAGGT	-0.13
CTAAGCACGTGGGGGA	-0.26
AAGTTCACGTGTGGGA	0.25
GTGTTCACGTGCATTG	0.27
TGTGGCACGTGATTTG	0.06
TGCGGCACGTGATAGA	0.04
GGCGTCACGTGCTTGG	0.1
TATGACACGTGAAGGG	0.22
GTGGTCACGTGCTCGT	0.08
ACAGTCACGTGTATGG	0.03
AGGGGCACGTGGATAA	-0.08
TAGGCCACGTGGCAGT	-0.07

Sequence	relative binding free energy [kcal/mol]
TTTGACACGTGCGGAT	-0.04
TATGACACGTGATAAG	0.29
CTATTCACGTGCGTGG	0.24
TCGAGCACGTGTATTG	-0.04
AAGTGCACGTGAGTAT	0.23
CTCTGCACGTGGGAGT	0
CGGTGCACGTGGGGTA	-0.3
ATGGCCACGTGATGGG	0.07
ATGTGCACGTGGAGTA	-0.09
GGGTCCACGTGTTTGA	0.03
TATGGCACGTGGTACA	-0.16
GGGTGCACGTGCGTCG	-0.2
ACTGGCACGTGGTGTA	-0.24
GTTCGCACGTGAGTTA	0.16
TTGCTCACGTGAGAGG	0.38
AGAATCACGTGAAGGG	0.41
CTTTTCACGTGACTGG	0.33
CTCGTCACGTGGTTTT	0.23
CATGGCACGTGGGTCT	-0.11
TAGTGCACGTGGAATG	-0.06
TAATTCACGTGTCTGA	0.31
GTGTTCACGTGCGTGG	0.28
GGGCTCACGTGGTTTA	0.23
GTTGCCACGTGTGGGC	0.05
GTGGTCACGTGGCATG	0.13
TCTTGCACGTGTGGGA	0.03

Sequence	relative binding free energy [kcal/mol]
TTAACCACGTGGGTGA	-0.11
GATGGCACGTGTGGGT	-0.02
AGTTGCACGTGACGTA	0.12
GTAGTCACGTGGCGCT	0.02
AATGCCACGTGGGAGT	-0.22
GTTGTCACGTGAAACG	0.34
GGCGTCACGTGTTTGT	0.18
TGATTCACGTGTGAGG	0.28
AGGTACACGTGTTGGT	0.05
TGTGGCACGTGCAGTA	-0.15
AGTTGCACGTGTGTAA	-0.02
TCTGTCACGTGTATGT	-0.04
AATGTCACGTGAGGTG	0.4
GTTTGCACGTGCGTGA	0
ACTTGCACGTGGTGGC	-0.11
ATGTGCACGTGGGATG	-0.17
AGAGGCACGTGTGGCA	0
TTGTTCACGTGACAGG	0.33
GAAAGCACGTGTGGGT	0.07
TTAGGCACGTGATAAA	0.13
TGAGTCACGTGGTACA	0.05
TGTGACACGTGATTGT	0.24
GTTAACACGTGGGGTG	-0.06
AATGCCACGTGTGGGG	-0.07
TTCTGCACGTGACGGT	0.12
TGAGTCACGTGGTTTC	0.32

Sequence	relative binding free energy [kcal/mol]
GGGAACACGTGTTGTG	0.01
TTTTGCACGTGGCGAG	-0.05
GATTGCACGTGCGCTT	0.15
AAGGGCACGTGCTGGA	-0.25
CATGACACGTGGATGG	-0.01
AGTATCACGTGGTTTT	0.08
CAAAACACGTGGGGTT	0.04
TTCGGCACGTGGTGCA	-0.21
GTGTTCACGTGGTCTG	0.18
TAGGTCACGTGGCGTC	-0.01
TTAAGCACGTGACGGG	-0.17
TGGTTCACGTGGCCAG	0.18
TAGAGCACGTGCGGTA	-0.14
ATGTGCACGTGGTCAT	-0.05
ATAGTCACGTGTGTTA	0.11
GCTTTCACGTGATTGT	0.3
CGATGCACGTGCGGGT	-0.18
TTTGCCACGTGGATAA	0.02
TATCGCACGTGGGGCG	-0.12
TGCGTCACGTGGGGCG	-0.02
ATGTGCACGTGATTAG	0.08
GGGACCACGTGGGTTG	-0.14
TATGTCACGTGAGTTT	0.27
GAGGGCACGTGGATGA	0
CGACTCACGTGTTGTT	0.37
GTCTACACGTGGCGGG	-0.04

Sequence	relative binding free energy [kcal/mol]
AATTGCACGTGTAATT	0.04
TTTAACACGTGGTGGG	-0.04
TTTGGCACGTGGTTTT	-0.12
TAGAGCACGTGATATT	0.07
GGTGACACGTGTGCGA	0.04
TCGTTCACGTGATCGT	0.48
ATTTTCACGTGGTTTA	0.18
AAATTCACGTGGTCGG	0.19
ATAATCACGTGGCTGT	0.02
TAGGTCACGTGAGTCA	0.27
GGCAGCACGTGGGGAT	-0.16
AAGTACACGTGGTGGA	0.07
AGGTACACGTGAAGAG	0.18
TGGGACACGTGCATTT	0.07
GAATGCACGTGGGGAG	-0.05
GGTAGCACGTGATTTG	0.13
TGATTCACGTGGGGCT	0.23
TGTAGCACGTGTAAGT	-0.07
GTGGCCACGTGGCGGG	-0.12
AAGATCACGTGGGAGT	0.02
ATATGCACGTGTGGTC	-0.05
GGACTCACGTGGAGTT	0.26
GGTTTCACGTGGTGCC	0.22
GGTCGCACGTGTTATG	-0.14
TGAGACACGTGAGGAG	0.21
AGGATCACGTGGGGGC	0.12

Sequence	relative binding free energy [kcal/mol]
GGACTCACGTGCGTGG	0.05
GGTTACACGTGGGGCT	0.2
TTTTGCACGTGCGGCT	0
GGTGTCACGTGTCGGC	0.2
GAGCTCACGTGTAGGT	0.32
TTTACCACGTGTTGAT	-0.06
TGGGGCACGTGTACAA	-0.01
GGTGGCACGTGCCAGG	0.03
ATTTGCACGTGGAACG	0.07
TGGTACACGTGAATTG	0.13
AGTAACACGTGGTAAT	-0.08
ATGGGCACGTGTATCG	-0.23
TCTTTCACGTGCGGGA	0.15
TTCTACACGTGCAGGG	0.2
AGTGCCACGTGTTGGA	-0.04
CTAAGCACGTGGGGGT	-0.25
GTGTTCACGTGCATGC	0.27
AGAGGCACGTGAAGAG	0.19
TCGGACACGTGTGGAT	0.04
ATAGCCACGTGGGCGG	-0.29
GCGTTCACGTGTATTT	0.41
TACTTCACGTGGGCAT	0.3
TAGAGCACGTGTAAGT	-0.05
TGGCCCACGTGATGTG	0.04
CTGTACACGTGTGTGA	0.03
GCTTACACGTGGGTAG	-0.08

Sequence	relative binding free energy [kcal/mol]
GAATTCACGTGTGCGG	0.41
GGGGGCACGTGTAAGA	-0.01
ATTGTCACGTGCATTA	-0.05
TGTACCACGTGAAGTA	0.35
TTATGCACGTGCTGTC	0.12
GGATTCACGTGTTAGG	0.39
CATGACACGTGGGTGA	-0.1
GAGGTCACGTGGGGAA	0.06
TTGGACACGTGTGAGC	0.12
TGTGTCACGTGGCGCC	-0.01
CATGGCACGTGGTAGA	-0.17
AATAACACGTGATTTT	0.36
GGGATCACGTGTTAAT	0.18
TAAGTCACGTGTTGCA	0.08
ATTACCACGTGTGTGT	-0.14
TGGCGCACGTGGAAGG	-0.02
AGATGCACGTGCGGTG	-0.17
TCGGTCACGTGTTTTT	0.05
CGGGTCACGTGATGCG	0.12
TGGACCACGTGATAGG	0.17
GGTATCACGTGGATTG	0.14
ATGTTCACGTGAGGGA	0.32
CGGAGCACGTGGCGTA	-0.19
GCGATCACGTGGTGGG	0.2
TATGTCACGTGGACGG	0.08
TTAGTCACGTGCGCTT	0.1

Sequence	relative binding free energy [kcal/mol]
TGGTACACGTGAATGA	0.2
GTGGGCACGTGTCGTG	0.01
CGTGTCACGTGGTATT	0.08
CTGGTCACGTGTAGTA	0.23
TATGTCACGTGGTCCG	0
AGGCGCACGTGGGAGA	-0.14
CTAGGCACGTGGTATT	-0.21
GGATTCACGTGATTAT	0.43
ATTTGCACGTGTTGGA	0.1
ATGGCCACGTGGTAGA	0.02
TCCAGCACGTGGTGGG	-0.06
ATCTACACGTGTGGTA	0.21
TAAGTCACGTGGATGT	0.18
CTTGGCACGTGAAAGT	0.17
ATGCGCACGTGTTGGT	-0.03
TTGATCACGTGGTGGA	0.01
TGTTTCACGTGATGCA	0.41
TATAGCACGTGTTGTA	-0.1
AGTTCCACGTGAGGAG	0.33
AGATGCACGTGATGTT	0.04
AGTGTCACGTGTTACA	0
TTGTTCACGTGGAGCT	0.37
GGGTTCACGTGCTAGT	0.25
CTTGGCACGTGGATTC	0.1
TGGGTCACGTGTTGCC	0.09
AGTGTCACGTGGTCAT	-0.05

Sequence	relative binding free energy [kcal/mol]
CGGATCACGTGTTATG	0.12
TGCGGCACGTGAGCTT	0.02
AGTGTCACGTGGGTCC	-0.09
CGGTTCACGTGCATAG	0.42
CTGGTCACGTGGTAAG	0.02
GGTGACACGTGGAAGA	0.13
TATGACACGTGCGGTT	-0.16
GATTCCACGTGTTTTG	0.1
ATGATCACGTGTCTTG	0.18
GTGACCACGTGGGGAA	-0.07
TGGGGCACGTGCCGCG	-0.29
AATTTCACGTGTATCG	0.27
GGTGACACGTGTGAAT	0.34
CGCTTCACGTGTGTGT	0.27
CTGTGCACGTGACGTG	0.06
GTAGGCACGTGACGAT	0.12
TTATTCACGTGGAGAC	0.39
TAATGCACGTGTGGGA	0.03
ACAGTCACGTGGATGG	-0.02
CATAACACGTGTTGTG	-0.02
ATGTGCACGTGTTGGC	0
TTATACACGTGTTATT	0.16
